Data on 46 compounds can be found in PMC4336329 (PLoS ONE, 2015).

Molecules are shown by their SMILES. About 2,200 (0.71%) of roughly 310,000 compounds showed an effect of 50% or more. Effects have a minus sign here. This is one part of the list.

In this assay the target is human ether-à-go-go-related gene (hERG) potassium channel (human, UniProt Q12809). Kind of assay: primary screen, population patch clamp on CHO cells stably expressing hERG.
Chain of human ether-à-go-go-related gene (hERG) potassium channel (Q12809 whole entry, looked up): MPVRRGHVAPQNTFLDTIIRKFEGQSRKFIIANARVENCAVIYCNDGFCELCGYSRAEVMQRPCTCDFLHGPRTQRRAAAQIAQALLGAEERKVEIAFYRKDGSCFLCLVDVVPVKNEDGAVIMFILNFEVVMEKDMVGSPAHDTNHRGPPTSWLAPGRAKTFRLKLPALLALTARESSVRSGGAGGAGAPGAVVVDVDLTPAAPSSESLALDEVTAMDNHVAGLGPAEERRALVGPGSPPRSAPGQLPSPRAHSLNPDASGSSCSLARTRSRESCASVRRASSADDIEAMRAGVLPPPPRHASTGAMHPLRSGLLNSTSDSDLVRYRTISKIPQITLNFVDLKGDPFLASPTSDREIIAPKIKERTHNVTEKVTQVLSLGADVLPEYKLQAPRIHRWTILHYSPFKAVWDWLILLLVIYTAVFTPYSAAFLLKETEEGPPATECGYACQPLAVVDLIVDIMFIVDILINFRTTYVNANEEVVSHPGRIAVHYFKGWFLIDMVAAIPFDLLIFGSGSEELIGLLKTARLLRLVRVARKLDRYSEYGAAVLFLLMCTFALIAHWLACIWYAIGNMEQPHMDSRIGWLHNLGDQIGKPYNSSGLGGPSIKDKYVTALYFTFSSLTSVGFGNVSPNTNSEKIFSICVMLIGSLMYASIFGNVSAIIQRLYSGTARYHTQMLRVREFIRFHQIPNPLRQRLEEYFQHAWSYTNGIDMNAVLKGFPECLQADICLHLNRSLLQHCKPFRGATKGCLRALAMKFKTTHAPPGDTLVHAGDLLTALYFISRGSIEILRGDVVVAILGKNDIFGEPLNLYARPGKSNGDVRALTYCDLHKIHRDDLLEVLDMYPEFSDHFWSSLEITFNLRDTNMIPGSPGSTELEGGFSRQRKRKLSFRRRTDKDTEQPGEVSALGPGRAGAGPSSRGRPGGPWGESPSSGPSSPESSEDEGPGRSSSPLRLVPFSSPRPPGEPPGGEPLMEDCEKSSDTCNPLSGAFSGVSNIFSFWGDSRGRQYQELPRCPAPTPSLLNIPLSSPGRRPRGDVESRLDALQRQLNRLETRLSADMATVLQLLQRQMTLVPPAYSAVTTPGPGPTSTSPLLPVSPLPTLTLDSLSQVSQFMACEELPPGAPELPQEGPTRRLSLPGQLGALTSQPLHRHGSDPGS
Turning to `CS(=O)(=O)Nc1ccc(C(=O)N2CCN(c3ccccc3F)CC2)cc1`, the “hERG current change (%, negative = inhibition) at 1uM” value is given as -69.2%.
For the compound `Cc1c(C(=O)OCC(=O)N2CC(=O)Nc3ccccc32)oc2ccc(Br)cc12`, the “hERG current change (%, negative = inhibition) at 1uM” value is given as -6.1%.
The value for `CCN(CC)C(=O)c1cccc(C)c1` was 13.7%; that for `CC1=CC2=NC(=O)CC(C)(C(=O)N(CC(=O)NC3CCCC3)c3cc(C)cc(C)c3)N2C=C1` (stereo not shown) was 9.75%.
The value for `CCCCC(=O)Nc1cccc2c1C(=O)N(c1ccccc1)C2=O` was 4.56%; that for `Cc1nc(SC2CC(=O)N(c3cc(Cl)cc(Cl)c3)C2=O)nc2c1CCCC2` (stereo not shown) was 11.8%; that for `CCOc1ccc(NC(=O)N(C2CCCC2)C2CCN(C(C)=O)CC2)cc1` was 8.33%.
The value for `OCc1cccnc1` was 15.5%; that for `Cc1nc2c(ncn2-c2ccccc2)c(=O)n1NC(=O)CN1CCCCC1` was 8.42%.
`COCCOn1c(SCCOC)nc2ccccc2c1=O`: the “hERG current change (%, negative = inhibition) at 1uM” value stood at 10.6%.
The value for `Cc1c(OC(=O)CNC(=O)OC(C)(C)C)ccc2c3c(c(=O)oc12)CCC3` was 2.21%; that for `OCCC1CN(Cc2cccn2-c2cccnc2)CCN1C1CCCCC1` (stereo not shown) was -6.64%; that for `O=C(c1ccc(C(F)(F)F)cc1)C1CCCN(Cc2ccc(CO)o2)C1` (stereo not shown) was 3.1%.
As for `CC(C)C(=O)Nc1ccc(-c2nc3ncccc3o2)cc1`, the figure is 6.84%; as for `CCCc1cc(=O)[nH]c(SCC(=O)Nc2ccc(Br)cc2Br)n1`, 14.1%; as for `Cc1ccc(-c2nc3ccccc3c(=O)n2N)cc1`, 12.3%.
As for `COc1cccc(CNC(=O)C2CCN(c3cnccn3)CC2)c1`, the figure is -0.588%; as for `S=c1[nH]nc(-c2cccs2)n1/N=C/c1cn(-c2ccccc2)nc1-c1ccccc1`, 10.3%; as for `N#Cc1ccc(N2CCCC2C(=O)O)c([N+](=O)[O-])c1` (stereo not shown), 8.24%.
Consider `Cc1c(NC(=O)C2(c3ccccc3)CCCC2)c(=O)n(-c2ccccc2)n1C`, for which the “hERG current change (%, negative = inhibition) at 1uM” value was determined as 10.8%.
As for `CCCOc1cccc(OCCSc2nc(C)cc(=O)[nH]2)c1`, the figure is 3.99%; as for `O=c1c2ccccc2oc2cc(OCc3ccc(F)cc3)cc(O)c12`, 11.6%.
The value for `Cc1cccc2c1cnn2C(=O)CCC(=O)NCc1ccc(F)cc1` was 0.609%; that for `O=C(Nc1ccc(N2CCOCC2)c(Cl)c1)c1ncn[nH]1` was 5.58%; that for `CCc1cc2c(-n3nc(C)cc3C)ncnc2s1` was 10.7%.
In the case of `COc1ccc(CNC(=O)CCCn2nc(C)c([N+](=O)[O-])c2C)cc1OC`, the “hERG current change (%, negative = inhibition) at 1uM” value turned out to be 7.31%.
The value for `Cc1oc(C(C)(C)C)cc1C(=O)Nc1ccc2c(c1)OCO2` was 13.9%; that for `CCN1CCN(C(=S)Nc2ccc3nc(N4CCN(C)CC4)cc(C)c3c2)CC1` was 8.22%.
As to `CCOC(=O)c1c(-c2ccc(F)cc2)cn2ccccc12`, the “hERG current change (%, negative = inhibition) at 1uM” value worked out at 10%.
As for `COC(=O)[C@H](CCSC)NC(=O)NCc1cccs1`, the figure is 16.4%.
As for `CSc1ccccc1NC(=O)c1csc(C)c1`, the figure is 4.05%; as for `Cc1ccc(OCCC(=O)Nc2c(C)n(C)n(-c3ccccc3)c2=O)cc1`, 3.64%; as for `O=C(C(Cl)Cl)N1CCN(Cc2ccccc2)CC1`, 5.56%.
The value for `O=C(CN1CCOCC1)Nc1ccccc1C(=O)O` was -7.05%; that for `Cc1noc(C)c1C(=O)OC(C)C(=O)Nc1ccc(S(=O)(=O)NC(C)C)cc1` (stereo not shown) was 5.92%.
With `O=C(C1=C[C@@H](c2ccc(Br)cc2)C[C@@H](OCCCCO)O1)N1CCN(Cc2ccccc2)CC1`, the “hERG current change (%, negative = inhibition) at 1uM” value is -22.5%.
Take `CCOC(=O)N1CCC(NC(=O)c2ccc(CNS(=O)(=O)c3ccc(F)cc3)cc2)CC1`: the “hERG current change (%, negative = inhibition) at 1uM” value is recorded as -9.59%.
As for `COc1ccc(Cl)cc1NC(=O)CN(C)C(=O)CN1C(=O)NC2(CCCC2)C1=O`, the figure is 7.52%.
As for `Cc1cc(SC(C)C(=O)O)nc2ccccc12` (stereo not shown), the “hERG current change (%, negative = inhibition) at 1uM” value stood at 5.41%.
The value for `COc1ccc(C)cc1NC(=O)c1cc2c(CO)cnc(C)c2oc1=N` was 10.2%.
Turning to `COc1c(Cl)cc(Cl)cc1CNCc1ccccc1.Cl`, the “hERG current change (%, negative = inhibition) at 1uM” value is reported as 2.49%.
`CN(Cc1ccccc1)S(=O)(=O)c1ccc(Cl)c(C(=O)NCc2ccc3c(c2)OCO3)c1`: the “hERG current change (%, negative = inhibition) at 1uM” value is reported as 10.8%.
With `CCCN1C=CC(=C2C(=O)c3ccccc3C2=O)C=C1`, the “hERG current change (%, negative = inhibition) at 1uM” value was found to be 13.6%.
As to `Cc1cc(C)c2c(n1)sc1c(=O)n(Cc3ccc(F)cc3)cnc12`, the “hERG current change (%, negative = inhibition) at 1uM” value is reported as 10.5%.
The value for `CCOc1ccc(N)cc1OC.Cl` was 15.6%; that for `CCCN[C@H]1CCc2nc(N)sc2C1` was -1.58%.
